PubChem BioAssay AID686978 (National Center for Advancing Translational Sciences (NCATS), 2013)
“And” between values parts separate entries of the source, which are not always exact repeats. Equal entries are not always repeated. The whole screen tested about 420,000 compounds, of which about 64,000 (15%) were called active. The inconclusive results got no clear call from the source; some entries with a clear call stand among them for comparison. Calls follow the shape of the dose curve; as a rule, active = well fitted inhibition curve with a large enough effect; inconclusive = small, poorly fitted or top-dose-only effect; inactive = flat fitted curve, though single readings scatter. A potency beside an inconclusive call is a rough fit, not a confirmed value.

Experiment: qHTS for Inhibitors of human tyrosyl-DNA phosphodiesterase 1 (TDP1): qHTS in cells in absence of CPT; also: nearly all actives have a fitted effect of over 55% in size
Conditions: DT40 Tdp1-/- hTDP1 cells, no CPT, ATP luminescence, 48 h; activity change, negative = growth inhibition: at 46.2 µM (top of the series)
Method in brief: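 Luminescent ATP content (CellTiter-Glo) served as the growth readout. Knockout chicken DT40 cells expressing human TDP1 were exposed to compounds without camptothecin for a minimum 48 hr at 37 °C.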
% is scaled to controls: 0 for no effect and ±100 for the full control effect; potency is read from the fitted curve at half-maximal effect; tags tell the direction and shape of the fitted curve.

Row | SMILES | Potency | activity change, negative = growth inhibition
1 | Cc1ccc(-c2cc3c(n2-c2ccc(F)cc2)CC(C)(C)CC3=O)cc1 | active: 18.4 µM | 
2 | O=S(=O)(c1cccc2nsnc12)N1CCCCC1 |  | inactive: 0.751%
3 | COc1ccc(CN2CCC(n3nccc3NC(=O)CCCc3ccccc3)CC2)cc1C | active: 29.1 µM | 
4 | Cn1c(=O)n(C)c2cc(NC(=O)c3cc4ccccc4o3)ccc21 | inconclusive: 18.4 µM [inhibitor, single point] | 
5 | Cn1c(=O)[nH]c(=O)c2c1nc(SCCN1CCOCC1)n2CCCc1ccccc1 | inconclusive: 25.9 µM [inhibitor, single point] | 
6 | O=C1C(=Cc2ccccc2[N+](=O)[O-])Cc2ccccc21 | active: 3.26 µM | 
7 | Cc1ccc2ccc3cccc4ccc1c2c34 |  | inactive: -28.3%
8 | Cc1cccc(NC(=O)CSc2nc3ccccc3c3nc(CCc4c(C)n[nH]c4C)nn23)c1 | active: 23.1 µM and active: 13 µM | 
9 | COc1ccc(SC[C@H](Cc2ccccc2)N2CCN(CCc3ccccc3)CCC2=O)cc1 | inconclusive: 25.9 µM [inhibitor, single point] | 
10 | CC(C)CC(=O)N1CCN(S(=O)(=O)c2ccc3ccccc3c2)CC1 | inconclusive: 14.6 µM [inhibitor, partial curve] | 
11 | Cc1ccsc1-c1cc2nc(NCCOc3ccccc3Cl)n(C)c(=O)c2s1 | inconclusive: 29.1 µM [inhibitor, single point] | 
12 | CN(Cc1nc(-c2cccs2)no1)CC(O)c1ccccc1 (centres undefined) | inconclusive: 1.46 µM [inhibitor, partial curve, poor fit] | 
13 | O=c1[nH]c(C2CCN(S(=O)(=O)c3ccc(C(F)(F)F)cc3)CC2)nc2c1nnn2Cc1ccc(F)cc1 | inconclusive: 18.4 µM [inhibitor, partial curve] | 
14 | CCCCCCCOc1ccc(CC(=O)NO)cc1 | active: 10 µM | 
15 | Cc1nc(C)n(CC(=O)N2CCCC(C(=O)c3cccc4ccccc34)C2)n1 (centres undefined) | inconclusive: 16.4 µM [inhibitor, single point] | 
16 | COc1ccc(Nc2nc3ccccc3nc2NS(=O)(=O)c2ccc(Cl)cc2)cc1OC | inconclusive: 29.1 µM [inhibitor, single point] | 
17 | CC(C)(C)c1nnc(NC(=O)Nc2ccc(Cl)cc2)s1 | active: 16.4 µM | 
18 | ClC(/C=N/n1cnnc1)=C/c1ccccc1 | active: 1.84 µM | 
19 | Nc1nc(=S)c2ncn(C3CCCC3)c2[nH]1 |  | inactive: 1.52%
20 | O=C(NCc1ccc2c(c1)OCO2)C1CC(=O)N(C2CCCCCCC2)C1 (centres undefined) |  | inactive: -8.92%
21 | O=C(O)C1CCC(NSc2ccccc2[N+](=O)[O-])CC1 (centres undefined) | active: 2.59 µM | 
22 | Cc1cccc(C)c1NC(=O)C(c1ccccc1)N1CCN(c2ccc(C(F)(F)F)cn2)CC1 (centres undefined) | inconclusive: 29.1 µM [inhibitor, single point] | 
23 | O=C(CN1C(=O)NC2(CCCC2)C1=O)OCCOc1cccc(Br)c1 | inconclusive: 23.1 µM [inhibitor, single point] | 
24 | C=C1O[C@@](CO)(n2cnc3c(N)ncnc32)[C@H](O)[C@@H]1O |  | inactive: -21.3% [at 92.5 µM]
25 | CCOC(=O)c1cccc(NC(=O)CSc2nc3cc4ccccc4cc3[nH]2)c1 | active: 23.1 µM | 

Row | SMILES | Potency | activity change, negative = growth inhibition
26 | O=S(=O)(Nc1cccc(F)c1)c1ccc2[nH]c3c(c2c1)CCCCC3 | inconclusive: 18.4 µM [inhibitor, single point] | 
27 | COc1ccc(C(=O)NCCCn2ccnc2)cc1 |  | inactive: -23.3%
28 | CC(C)(C)n1nnnc1C(c1ccc(F)cc1)N1CCN(Cc2ccc3c(c2)OCO3)CC1 (centres undefined) |  | inactive: -20.6%
29 | CC(=O)Nc1ccc(NC(=O)c2cnn(-c3ccccc3)c2C2CCN(C(=O)OC(C)(C)C)CC2)cc1 |  | inactive: -21.8%
30 | CC(C)c1ccc(N2C(=O)CC(NNC(=O)c3cccnc3)C2=O)cc1 (centres undefined) |  | inactive: -5.09%
31 | COc1cc([N+](=O)[O-])ccc1NC(=O)Nn1cnnc1 |  | inactive: 23.4%
32 | COC(=O)c1ccc(CSc2nnc(N)s2)cc1 |  | inactive: -11.8%
33 | CCCCC(=O)OCC(=O)N1N=C(c2c[nH]c3ccccc23)C(O)C1c1ccc(OC)cc1 (centres undefined) | inconclusive: 29.1 µM [inhibitor, single point] | 
34 | O=c1c(Cc2ccccc2)c(O)c2cccc3c4c(n1c23)CCCC4 |  | inactive: -1.08%
35 | Clc1nnc(Cl)c2c1ncn2Cc1ccccc1 |  | inconclusive: -33% [inhibitor]
36 | CCC(C(=O)NCc1cccc(Br)c1)n1nc(C)c2c(C)n(-c3ccccc3)nc2c1=O (centres undefined) | inconclusive: 20.6 µM [inhibitor, single point] | 
37 | CCC(=O)N1CCc2cc(CNC(=O)c3ccc(C#N)cc3)ccc21 |  | inactive: -23.2%
38 | CCc1ccc(OCCCC(=O)Nc2ccc(N3CCCCC3)cc2)cc1 | inconclusive: 18.4 µM [inhibitor, single point] | 
39 | CN(C)c1ccc(C=c2c3ccccc3n3c2c2ccccc2[n+]3C)cc1 | active: 1.46 µM | 
40 | COc1cc(CNc2ccc(O)cc2)cc(Br)c1OCc1ccccc1F | inconclusive: 18.4 µM [inhibitor, single point] | 
41 | CCOc1ccccc1Nc1nnc(-c2cc3cc(Cl)ccc3oc2=O)s1 | active: 2.31 µM | 
42 | COc1cc(/C=N/NC(=O)Cn2nc([N+](=O)[O-])cc2C)cc(Br)c1OCc1ccccc1 | inconclusive: 20.6 µM [inhibitor, single point] | 
43 | Nc1nc(SCC(=O)NCCOCCO)nc2sc3c(c12)CCCC3 |  | inactive: -13.4%
44 | COc1cc(OC)cc(C(=O)Nc2ccc3c(c2)OCCO3)c1 | inconclusive: 18.4 µM [inhibitor, partial curve] | 
45 | Cc1cccc(NC(=O)CSCC(=O)N2CCN(Cc3ccc4c(c3)OCO4)CC2)c1 |  | inactive: -21.3%
46 | COc1ccc([C@H]2CC(=O)C=C(c3ccc(Cl)c(C(F)(F)F)c3)C2)cc1OC | inconclusive: 16.4 µM [inhibitor, single point] | 
47 | CCOC(=O)c1c[nH]c2c([N+](=O)[O-])cc(OC)cc2c1=O | active: 16.4 µM | 
48 | CC(=O)c1sc(Nc2nc(C)cc(C)n2)nc1C | inconclusive: 3.26 µM [inhibitor, partial curve, poor fit] | 
49 | Cc1cccc(OCC(=O)Nc2cc(S(=O)(=O)N3CCOCC3)ccc2N2CCCC2)c1C | active: 16.4 µM | 
50 | Cn1c(=O)c2c(-c3ccc(C(C)(C)C)cc3)n(CC3CCCO3)cc2n(C)c1=O (centres undefined) | inconclusive: 29.1 µM [inhibitor, single point] | 

Row | SMILES | Potency | activity change, negative = growth inhibition
51 | COc1ccc(-c2nc3sc(CCNC(=O)C(=O)Nc4ccc(C)c(F)c4)c(C)n3n2)cc1 |  | inactive: 0.613%
52 | CCN(CC(=O)NC1CCS(=O)(=O)C1)S(=O)(=O)c1cc([N+](=O)[O-])ccc1C (centres undefined) |  | inactive: 13.7%
53 | COc1ccc(N/C(=N/c2nc(C)cc(C)n2)NC(=O)Nc2ccc(Cl)c(Cl)c2)c(OC)c1 |  | inactive: -26.6%
54 | NC(=O)c1cc([N+](=O)[O-])c(Cl)cc1NCc1cccnc1 | inconclusive: 29.1 µM [inhibitor, single point] | 
55 | CCCCOc1ccc(C(=O)NCCc2ccccc2)cc1 | inconclusive: 29.1 µM [inhibitor, single point] | 
56 | CCCn1nc(NC(=O)c2cccc(Cl)c2)c2cc3cccc(C)c3nc21 |  | inactive: -13%
57 | Cc1ccccc1Nc1c(-c2ccccc2)nc2ncccn12 | inconclusive: 7.31 µM [inhibitor, single point] | 
58 | CCOC(=O)c1c(C)[nH]c(C)c1S(=O)(=O)N1CCCC(C(=O)Nc2cccc(C)n2)C1 (centres undefined) |  | inactive: -6.15%
59 | CC(C)C(=O)Nc1ccc(C(=O)Nc2nnc(C(C)(C)C)s2)cc1 | inconclusive: 29.1 µM [inhibitor, single point] | 
60 | CCOc1ccc(NC(=O)CSC2=Nc3ccccc3C3=NC(Cc4ccccc4)C(=O)N23)cc1 (centres undefined) | inconclusive: 29.1 µM [inhibitor, single point] | 
61 | c1csc(-c2ccc(N3CCOCC3)nn2)c1 | active: 8.2 µM | 
62 | O=C(Nc1nc(COc2ccccc2)cs1)C12CC3CC(CC(C3)C1)C2 | inconclusive: 35.5 µM [inhibitor, single point] | 
63 | Cc1cccc(CNc2ccnc(-c3cccc(NS(C)(=O)=O)c3)n2)c1 | inconclusive: 25.9 µM [inhibitor, single point] | 
64 | Cc1ccc(C(=O)N2CCN(c3ccccc3Cl)CC2)cc1[N+](=O)[O-] | inconclusive: 9.2 µM [inhibitor, partial curve] | 
65 | COC(=O)c1sccc1N/N=C/c1cccc(OC)c1O | inconclusive: 23.1 µM [inhibitor, single point] | 
66 | O=C(C1CCN(S(=O)(=O)c2cccc3nsnc23)CC1)N1CCN(c2ccccc2F)CC1 | inconclusive: 29.1 µM [inhibitor, single point] | 
67 | CC(C)CNC(=O)c1ccccc1-c1ccccc1C(=O)O |  | inactive: -15.6%
68 | Cc1ccc(-c2csc(NC(=O)CSc3ncn(-c4ccccc4)n3)n2)cc1 |  | inconclusive: -31.9% [inhibitor]
69 | O=C(Nc1ccc(Oc2cccnc2)cc1)c1ccccc1F |  | inconclusive: -32.6% [inhibitor]
70 | CCOCCCn1c(=NC(=O)c2cccnc2)c(C(=O)OCC)cc2c(=O)n3ccccc3nc21 | inconclusive: 29.1 µM [inhibitor, single point] and inconclusive: 25.9 µM [inhibitor, single point] | 
71 | CCc1ccc(S(=O)(=O)c2cn(C)c3cc(F)c(F)cc3c2=O)cc1 | inconclusive: 2.91 µM [inhibitor, partial curve, poor fit] | 
72 | c1ccc(Nc2ncncc2-c2ccc3c(c2)OCO3)cc1 |  | inactive: -12.9%
73 | Cc1ccc(NC(=O)Cn2c(-c3nonc3N)nc3ccccc32)cc1C | inconclusive: 18.4 µM [inhibitor, single point] | 
74 | COC(=O)[C@H]1[C@@H]2C[C@@H]3c4[nH]c5ccccc5c4CCN3C[C@H]2CC[C@H]1O |  | inactive: -23.5%
